# Reference: the antibiotic and cytotoxicity screens of Wong et al. (2023)
# This is one part of the list.
# Test system: HepG2
# Assay: cytotoxicity call (relative viability < 0.9)
# Settings: 10 µM
row,Structure (SMILES),cytotoxicity call
1,Cc1noc(C)c1NC(=O)Nc1ccc2c(c1)CC(=O)N([C@@H](C)CO)C[C@@H](C)[C@@H](CN(C)C(=O)NC(C)C)O2,inactive
2,O=C(C[C@H]1C=C[C@@H](NC(=O)CN2CCOCC2)[C@H](CO)O1)NCCc1ccccc1,inactive
3,C[C@@H]1CN([C@H](C)CO)S(=O)(=O)c2ccc(-c3ccc(F)cc3)cc2O[C@H]1CN(C)S(C)(=O)=O,inactive
4,Cn1cnc(CCNC(=O)C[C@@H]2CC[C@H]3[C@@H](COC[C@H](O)CN3C(=O)Nc3ccc(C(F)(F)F)cc3)O2)c1,inactive
5,C[C@@H]1CN([C@H](C)CO)C(=O)c2cc(NS(=O)(=O)c3ccc(Cl)cc3)ccc2O[C@H]1CN(C)Cc1ccc(Oc2ccccc2)cc1,active
6,C[C@@H]1CN([C@@H](C)CO)C(=O)c2cccc(NS(=O)(=O)c3ccc(F)cc3)c2O[C@@H]1CN(C)C(=O)Nc1ccc(C(F)(F)F)cc1,active
7,O=C(O)c1cc(O)c(O)c(O)c1,inactive
8,C[C@H](CO)N1C[C@H](C)[C@H](CN(C)Cc2ccncc2)Oc2c(NC(=O)C3CCOCC3)cccc2C1=O,inactive
9,C[C@@H]1CN([C@H](C)CO)C(=O)c2cc(NC(=O)Nc3cccc4ccccc34)ccc2O[C@H]1CN(C)Cc1ccc(C(F)(F)F)cc1,inactive
10,O=C(C[C@@H]1CC[C@H]2[C@@H](COC[C@H](O)CN2C(=O)Nc2cccc(Cl)c2)O1)NCc1ccccc1F,inactive
11,C[C@@H]1CN([C@@H](C)CO)C(=O)Cc2cc(NS(=O)(=O)c3ccc(F)cc3)ccc2O[C@H]1CN(C)S(=O)(=O)c1cccs1,inactive
12,CC(C)NC(=O)N(C)C[C@H]1Oc2ccc(NS(=O)(=O)c3cn(C)cn3)cc2CC(=O)N([C@@H](C)CO)C[C@@H]1C,inactive
13,C[C@H](CO)N1C[C@H](C)[C@H](CN(C)Cc2ccncc2)Oc2ccc(NS(=O)(=O)c3ccc(F)cc3)cc2CC1=O,inactive
14,C[C@H](CO)N1C[C@H](C)[C@H](CN(C)Cc2ccccc2)OCCCC[C@H](C)Oc2ccc(NC(=O)c3ccccc3)cc2C1=O,inactive
15,COc1ccc(S(=O)(=O)Nc2ccc3c(c2)C(=O)N([C@@H](C)CO)C[C@H](C)[C@@H](CN(C)C(=O)Nc2ccccc2)OCCCC[C@@H](C)O3)cc1,inactive
16,C[C@@H]1CN([C@H](C)CO)C(=O)c2cc(NC(=O)Cc3cn(C)c4ccccc34)ccc2O[C@H]1CN(C)Cc1ccc(C(F)(F)F)cc1,inactive
17,C[C@H](CO)N1C[C@H](C)[C@@H](CN(C)S(=O)(=O)c2ccccc2)Oc2ccc(NC(=O)CCCN(C)C)cc2CC1=O,inactive
18,Cc1ccc(S(=O)(=O)N(C)C[C@@H]2OCCCC[C@H](C)Oc3ccc(NC(=O)C4CCCCC4)cc3C(=O)N([C@@H](C)CO)C[C@H]2C)cc1,inactive
19,C[C@@H]1CN([C@H](C)CO)C(=O)c2cc(NS(C)(=O)=O)ccc2O[C@@H](C)CCCCO[C@@H]1CN(C)Cc1ccc(C(F)(F)F)cc1,inactive
20,CC(C)NC(=O)Nc1ccc2c(c1)CC(=O)N([C@H](C)CO)C[C@H](C)[C@@H](CN(C)Cc1ccc(C(=O)O)cc1)O2,inactive
21,Cc1ccc(S(=O)(=O)N(C)C[C@@H]2OCCCC[C@H](C)Oc3ccc(NC(=O)Nc4ccc(F)cc4)cc3C(=O)N([C@@H](C)CO)C[C@H]2C)cc1,inactive
22,Cc1ccc(S(=O)(=O)N(C)C[C@@H]2OCCCC[C@H](C)Oc3ccc(NC(=O)c4ccccc4)cc3C(=O)N([C@H](C)CO)C[C@@H]2C)cc1,inactive
23,C[C@H]1CN([C@@H](C)CO)C(=O)c2cc(NC(=O)Nc3cccc4ccccc34)ccc2O[C@@H]1CN(C)S(=O)(=O)c1cccs1,inactive
24,COCC(=O)N1C[C@H](C)[C@@H](OC)CN(C)C(=O)c2cc(NC(=O)c3ccc(OC)cc3)ccc2OC[C@@H]1C,inactive
25,COc1ccc(NC(=O)Nc2ccc3c(c2)C(=O)N([C@H](C)CO)C[C@@H](C)[C@H](CN(C)CC2CC2)OCCCC[C@@H](C)O3)cc1,inactive
26,COc1ccc(S(=O)(=O)N(C)C[C@H]2OCCCC[C@H](C)Oc3ccc(NC(=O)Nc4cccc5ccccc45)cc3C(=O)N([C@@H](C)CO)C[C@@H]2C)cc1,inactive
27,COc1ccc(S(=O)(=O)N(C)C[C@@H]2Oc3ncc(C#Cc4cccc(F)c4)cc3C(=O)N([C@H](C)CO)C[C@@H]2C)cc1,inactive
28,CC(C)NCC(O)COc1ccc(CC(N)=O)cc1 (stereo not drawn),inactive
